Key:
[1] = molecular target: T1, PRYSPRY domain of mouse TRIM21 with N-terminal 6xHis tag (mouse); assay: SPR, Protein L capture
T1 construct: Expressed in E. coli; also called mTRIM21; mouse TRIM21.PRYSPRY
T1 chain: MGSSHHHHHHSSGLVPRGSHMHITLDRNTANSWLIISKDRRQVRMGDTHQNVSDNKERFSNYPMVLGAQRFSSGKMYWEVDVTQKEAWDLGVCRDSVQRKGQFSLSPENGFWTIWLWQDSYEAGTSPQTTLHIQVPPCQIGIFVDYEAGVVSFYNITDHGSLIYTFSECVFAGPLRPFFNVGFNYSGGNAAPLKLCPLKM

human FcRn [2] = molecular target: T2, human FcRn (human, UniProt P55899 in part; P61769 in part, limits assumed); assay: SPR, Protein L capture
Sequence of human FcRn (P55899 24-290 limits assumed, form in doubt, chain 1 of 2): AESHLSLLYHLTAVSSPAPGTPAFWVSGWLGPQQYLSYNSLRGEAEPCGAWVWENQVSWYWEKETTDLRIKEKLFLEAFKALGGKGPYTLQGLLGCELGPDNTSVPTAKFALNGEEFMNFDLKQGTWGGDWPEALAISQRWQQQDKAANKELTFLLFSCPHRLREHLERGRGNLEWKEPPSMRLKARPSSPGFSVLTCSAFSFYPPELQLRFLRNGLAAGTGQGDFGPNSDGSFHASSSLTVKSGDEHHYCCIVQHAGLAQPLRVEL
Sequence of human FcRn (P61769 21-119 limits assumed, form in doubt, chain 2 of 2, further chain): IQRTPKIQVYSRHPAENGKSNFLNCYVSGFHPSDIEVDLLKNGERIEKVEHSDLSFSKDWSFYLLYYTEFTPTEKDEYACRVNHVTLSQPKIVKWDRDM
T2 construct: also called hFcRn

[3] = molecular target: T3, PRYSPRY domain of human TRIM21 with N-terminal 6xHis tag (human); assay: SPR, Protein L capture
T3 construct: Expressed in E. coli; also called hTRIM21; human TRIM21.PRYSPRY
T3 chain: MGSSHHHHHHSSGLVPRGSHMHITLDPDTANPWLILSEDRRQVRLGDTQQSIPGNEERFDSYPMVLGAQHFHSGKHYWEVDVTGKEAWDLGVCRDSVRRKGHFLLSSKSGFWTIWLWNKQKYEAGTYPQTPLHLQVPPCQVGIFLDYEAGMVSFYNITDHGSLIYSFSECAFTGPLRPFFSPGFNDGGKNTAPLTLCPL

[4] = molecular target: T4, mouse TRIM21 PRYSPRY domain with N-terminal 6xHis tag (mouse); assay: SPR, Ab captured on Protein L, 100 nM mTRIM21
T4 construct: Expressed from pET28a in E. coli; also called mTRIM21
T4 chain: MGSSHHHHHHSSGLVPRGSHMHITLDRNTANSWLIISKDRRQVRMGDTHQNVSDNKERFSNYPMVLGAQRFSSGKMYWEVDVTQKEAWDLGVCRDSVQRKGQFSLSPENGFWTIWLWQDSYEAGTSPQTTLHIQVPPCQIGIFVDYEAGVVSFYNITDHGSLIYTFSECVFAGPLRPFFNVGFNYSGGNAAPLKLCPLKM

[5] = molecular target: T5, human TRIM21 PRYSPRY domain with N-terminal 6xHis tag (human); assay: SPR, Ab captured on Protein L, 100 nM hTRIM21
T5 construct: Expressed from pET28a in E. coli; also called hTRIM21
T5 chain: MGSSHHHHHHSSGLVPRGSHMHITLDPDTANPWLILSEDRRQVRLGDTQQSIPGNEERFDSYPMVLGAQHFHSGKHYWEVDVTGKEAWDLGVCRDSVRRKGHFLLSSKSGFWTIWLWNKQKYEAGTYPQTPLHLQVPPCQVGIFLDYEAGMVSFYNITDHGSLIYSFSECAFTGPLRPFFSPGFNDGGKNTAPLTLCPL

human FcRn [6] = molecular target: T6, human FcRn (human, UniProt P55899 in part; P61769 in part, limits assumed); assay: SPR pH 6.0, Ab captured on Protein L, 1 uM hFcRn
T6 construct: also called hFcRn

| Binder | mTRIM21 binding level ratio (variant/control antibody) [1] | hFcRn binding level ratio (variant/control antibody) (human FcRn [2]) | hTRIM21 binding level ratio (variant/control antibody) [3] | mTRIM21 binding level ratio (variant/control antibody) [4] | hTRIM21 binding level ratio (variant/control antibody) [5] | hFcRn binding level ratio (variant/control antibody) (human FcRn [6]) |
| --- | --- | --- | --- | --- | --- | --- |
| MRAH-G1d/MRAL-KT0 Y436M (antibody, human IgG1, kappa, copies: 2 + 2) heavy: QVQLQESGPGLVRPSQTLSLTCTVSGYSITSDHAWSWVRQPPGRGLEWIGYISYSGITTYNPSLKSRVTMLRDTSKNQFSLRLSSVTAADTAVYYCARSLARTTAMDYWGQGSLVTVSS[human IgG1 constant region with Y436M (EU numbers) omitted here] light: DIQMTQSPSSLSASVGDRVTITCRASQDISSYLNWYQQKPGKAPKLLIYYTSRLHSGVPSRFSGSGSGTDFTFTISSLQPEDIATYYCQQGNTLPYTFGQGTKVEIKRTVAAPSVFIFPPSDEQLKSGTASVVCLLNNFYPREAKVQWKVDNALQSGNSQESVTEQDSKDSTYSLSSTLTLSKADYEKHKVYACEVTHQGLSSPVTKSFNRGEC | 0.892 | 0.88 | 0.247 |  |  |  |
| MRAH-G1d/MRAL-KT0 Y436Q (antibody, human IgG1, kappa, copies: 2 + 2) heavy: QVQLQESGPGLVRPSQTLSLTCTVSGYSITSDHAWSWVRQPPGRGLEWIGYISYSGITTYNPSLKSRVTMLRDTSKNQFSLRLSSVTAADTAVYYCARSLARTTAMDYWGQGSLVTVSS[human IgG1 constant region with Y436Q (EU numbers) omitted here] light: DIQMTQSPSSLSASVGDRVTITCRASQDISSYLNWYQQKPGKAPKLLIYYTSRLHSGVPSRFSGSGSGTDFTFTISSLQPEDIATYYCQQGNTLPYTFGQGTKVEIKRTVAAPSVFIFPPSDEQLKSGTASVVCLLNNFYPREAKVQWKVDNALQSGNSQESVTEQDSKDSTYSLSSTLTLSKADYEKHKVYACEVTHQGLSSPVTKSFNRGEC | 0.15 | 0.93 | -0.035 |  |  |  |
| MRAH-G1d/MRAL-KT0 Y436R (antibody, human IgG1, kappa, copies: 2 + 2) heavy: QVQLQESGPGLVRPSQTLSLTCTVSGYSITSDHAWSWVRQPPGRGLEWIGYISYSGITTYNPSLKSRVTMLRDTSKNQFSLRLSSVTAADTAVYYCARSLARTTAMDYWGQGSLVTVSS[human IgG1 constant region with Y436R (EU numbers) omitted here] light: DIQMTQSPSSLSASVGDRVTITCRASQDISSYLNWYQQKPGKAPKLLIYYTSRLHSGVPSRFSGSGSGTDFTFTISSLQPEDIATYYCQQGNTLPYTFGQGTKVEIKRTVAAPSVFIFPPSDEQLKSGTASVVCLLNNFYPREAKVQWKVDNALQSGNSQESVTEQDSKDSTYSLSSTLTLSKADYEKHKVYACEVTHQGLSSPVTKSFNRGEC | 0.295 | 0.47 | -0.028 |  |  |  |
| MRAH-G1d/MRAL-KT0 Y436S (antibody, human IgG1, kappa, copies: 2 + 2) heavy: QVQLQESGPGLVRPSQTLSLTCTVSGYSITSDHAWSWVRQPPGRGLEWIGYISYSGITTYNPSLKSRVTMLRDTSKNQFSLRLSSVTAADTAVYYCARSLARTTAMDYWGQGSLVTVSS[human IgG1 constant region with Y436S (EU numbers) omitted here] light: DIQMTQSPSSLSASVGDRVTITCRASQDISSYLNWYQQKPGKAPKLLIYYTSRLHSGVPSRFSGSGSGTDFTFTISSLQPEDIATYYCQQGNTLPYTFGQGTKVEIKRTVAAPSVFIFPPSDEQLKSGTASVVCLLNNFYPREAKVQWKVDNALQSGNSQESVTEQDSKDSTYSLSSTLTLSKADYEKHKVYACEVTHQGLSSPVTKSFNRGEC | 1.2 | 0.58 | 0.2 |  |  |  |
| MRAH-G1d/MRAL-KT0 Y436T (antibody, human IgG1, kappa, copies: 2 + 2) heavy: QVQLQESGPGLVRPSQTLSLTCTVSGYSITSDHAWSWVRQPPGRGLEWIGYISYSGITTYNPSLKSRVTMLRDTSKNQFSLRLSSVTAADTAVYYCARSLARTTAMDYWGQGSLVTVSS[human IgG1 constant region with Y436T (EU numbers) omitted here] light: DIQMTQSPSSLSASVGDRVTITCRASQDISSYLNWYQQKPGKAPKLLIYYTSRLHSGVPSRFSGSGSGTDFTFTISSLQPEDIATYYCQQGNTLPYTFGQGTKVEIKRTVAAPSVFIFPPSDEQLKSGTASVVCLLNNFYPREAKVQWKVDNALQSGNSQESVTEQDSKDSTYSLSSTLTLSKADYEKHKVYACEVTHQGLSSPVTKSFNRGEC | 1.99 | 0.94 | 1.08 |  |  |  |
| MRAH-G1d/MRAL-KT0 Y436V (antibody, human IgG1, kappa, copies: 2 + 2) heavy: QVQLQESGPGLVRPSQTLSLTCTVSGYSITSDHAWSWVRQPPGRGLEWIGYISYSGITTYNPSLKSRVTMLRDTSKNQFSLRLSSVTAADTAVYYCARSLARTTAMDYWGQGSLVTVSS[human IgG1 constant region with Y436V (EU numbers) omitted here] light: DIQMTQSPSSLSASVGDRVTITCRASQDISSYLNWYQQKPGKAPKLLIYYTSRLHSGVPSRFSGSGSGTDFTFTISSLQPEDIATYYCQQGNTLPYTFGQGTKVEIKRTVAAPSVFIFPPSDEQLKSGTASVVCLLNNFYPREAKVQWKVDNALQSGNSQESVTEQDSKDSTYSLSSTLTLSKADYEKHKVYACEVTHQGLSSPVTKSFNRGEC | 0.483 | 0.79 | 0.122 |  |  |  |
| MRAH-G1d/MRAL-KT0 K439F (antibody, human IgG1, kappa) heavy: QVQLQESGPGLVRPSQTLSLTCTVSGYSITSDHAWSWVRQPPGRGLEWIGYISYSGITTYNPSLKSRVTMLRDTSKNQFSLRLSSVTAADTAVYYCARSLARTTAMDYWGQGSLVTVSS[human IgG1 constant region with K439F (EU numbers) omitted here] light: DIQMTQSPSSLSASVGDRVTITCRASQDISSYLNWYQQKPGKAPKLLIYYTSRLHSGVPSRFSGSGSGTDFTFTISSLQPEDIATYYCQQGNTLPYTFGQGTKVEIKRTVAAPSVFIFPPSDEQLKSGTASVVCLLNNFYPREAKVQWKVDNALQSGNSQESVTEQDSKDSTYSLSSTLTLSKADYEKHKVYACEVTHQGLSSPVTKSFNRGEC |  |  |  | 1.89 | 0.932 | 0.79 |
| MRAH-G1d/MRAL-KT0 K439I (antibody, human IgG1, kappa) heavy: QVQLQESGPGLVRPSQTLSLTCTVSGYSITSDHAWSWVRQPPGRGLEWIGYISYSGITTYNPSLKSRVTMLRDTSKNQFSLRLSSVTAADTAVYYCARSLARTTAMDYWGQGSLVTVSS[human IgG1 constant region with K439I (EU numbers) omitted here] light: DIQMTQSPSSLSASVGDRVTITCRASQDISSYLNWYQQKPGKAPKLLIYYTSRLHSGVPSRFSGSGSGTDFTFTISSLQPEDIATYYCQQGNTLPYTFGQGTKVEIKRTVAAPSVFIFPPSDEQLKSGTASVVCLLNNFYPREAKVQWKVDNALQSGNSQESVTEQDSKDSTYSLSSTLTLSKADYEKHKVYACEVTHQGLSSPVTKSFNRGEC |  |  |  | 2.04 | 0.964 | 0.93 |
| MRAH-G1d/MRAL-KT0 K439L (antibody, human IgG1, kappa) heavy: QVQLQESGPGLVRPSQTLSLTCTVSGYSITSDHAWSWVRQPPGRGLEWIGYISYSGITTYNPSLKSRVTMLRDTSKNQFSLRLSSVTAADTAVYYCARSLARTTAMDYWGQGSLVTVSS[human IgG1 constant region with K439L (EU numbers) omitted here] light: DIQMTQSPSSLSASVGDRVTITCRASQDISSYLNWYQQKPGKAPKLLIYYTSRLHSGVPSRFSGSGSGTDFTFTISSLQPEDIATYYCQQGNTLPYTFGQGTKVEIKRTVAAPSVFIFPPSDEQLKSGTASVVCLLNNFYPREAKVQWKVDNALQSGNSQESVTEQDSKDSTYSLSSTLTLSKADYEKHKVYACEVTHQGLSSPVTKSFNRGEC |  |  |  | 2.1 | 1.04 | 0.93 |
| MRAH-G1d/MRAL-KT0 T437P (antibody, human IgG1, kappa) heavy: QVQLQESGPGLVRPSQTLSLTCTVSGYSITSDHAWSWVRQPPGRGLEWIGYISYSGITTYNPSLKSRVTMLRDTSKNQFSLRLSSVTAADTAVYYCARSLARTTAMDYWGQGSLVTVSS[human IgG1 constant region with T437P (EU numbers) omitted here] light: DIQMTQSPSSLSASVGDRVTITCRASQDISSYLNWYQQKPGKAPKLLIYYTSRLHSGVPSRFSGSGSGTDFTFTISSLQPEDIATYYCQQGNTLPYTFGQGTKVEIKRTVAAPSVFIFPPSDEQLKSGTASVVCLLNNFYPREAKVQWKVDNALQSGNSQESVTEQDSKDSTYSLSSTLTLSKADYEKHKVYACEVTHQGLSSPVTKSFNRGEC |  |  |  | -0.129 |  | 0.03 |
